Experimental data from PubChem BioAssay AID686978 (National Center for Advancing Translational Sciences (NCATS), 2013).
Where “and” joins values, the source holds several entries; their conditions need not be identical. Equal entries are not always repeated. About 64,000 (15%) of roughly 420,000 compounds were called active. This list was built around the results that the source calls inconclusive (neither active nor inactive); the mix of calls is not that of the screen. The call rests on the fitted dose curve; in most records, active means well fitted inhibition curve with a large enough effect; inconclusive means small, poorly fitted or top-dose-only effect; inactive means flat fitted curve, though single readings scatter. Potencies of inconclusive entries are doubtful fits and often do not repeat.

Assay: qHTS for Inhibitors of human tyrosyl-DNA phosphodiesterase 1 (TDP1): qHTS in cells in absence of CPT; further: nearly all actives have a fitted effect of over 55% in size
Conditions: DT40 Tdp1-/- hTDP1 cells, no CPT, ATP luminescence, 48 h; activity change, negative = growth inhibition: at 46.2 µM (top of the series) unless noted
Outline: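 DT40 Tdp1-/-;hTDP1 cells, no CPT (DMSO vehicle only), 400 cells/well; compounds pin-transferred; ≥48 hr, 37 °C; CellTiter-Glo 30 min RT dark, luminescence read.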
On the % scale 0 is the no-effect control and ±100 the full control effect; potency means the concentration at half of the fitted maximal effect; tags describe the fitted curve by direction and shape.

SMILES | Potency | activity change, negative = growth inhibition
CC(C)Oc1cc(F)ccc1-c1cc(C(=O)NCc2cccs2)[nH]n1 | inconclusive: 2.91 µM [inhibitor, full curve] | –
Cc1ccc(C)c(-c2nnc(NC(=O)Cc3ccccc3)o2)c1 | inconclusive: 5.8 µM [inhibitor, single point] | –
Cc1ccc(S(=O)(=O)c2c(O)cc(C)c(NS(=O)(=O)c3ccc(Cl)cc3)c2C)cc1 | inconclusive: 23.1 µM [inhibitor, single point] | –
Cc1cc(C)c2sc(N3CCN(C(=O)c4ccc(N(C)C)cc4)CC3)nc2c1 | active: 14.6 µM | –
COc1cccc(-c2nnc3sc(-c4cccs4)nn23)c1 | active: 16.4 µM | –
O=C(Cn1c(C(F)(F)F)nc2ccccc21)Nc1ccccc1N1CCOCC1 | inactive | –
COc1cc(C)c(/C=C/C(C)=C/C=C/C(C)=C/C(=O)O)c(C)c1C | inconclusive: 10.3 µM [inhibitor, partial curve] | –
CC(=O)Nc1ccc(CN(C)c2c(C)nc3ccc(C(=O)NCCCN4CCCC4=O)cn23)cc1 | inactive | –
CCOC(=O)C[C@H]1c2ccc(C(F)(F)F)cc2S(=O)(=O)N1C(C)(C)C | inconclusive: 35.5 µM [inhibitor, single point] and inconclusive: 25.9 µM [inhibitor, single point] | –
COc1cccc(CN(C)C(=O)[C@@H](NC(=O)c2ccc(C)cc2)C(C)C)c1 | active: 20.6 µM | –
COc1ccc(CN2CCNC(=O)C2CC(=O)N(C)Cc2nc(C)cs2)c(OC)c1 (configuration not stated) | inactive | –
Cc1ccc(C)c(N(CC(=O)NC2CCCCC2)C(=O)c2snc(C(N)=O)c2N)c1 | inactive | –
CCOC(=O)C1CCCN(C(=O)c2cc(S(=O)(=O)Nc3ccccc3OC)ccc2C)C1 (configuration not stated) | – | inconclusive: -37.2% [inhibitor]
CCCCCCCCCCCCCCCCCC(=O)OCC(O)CO (configuration not stated) | inactive | –
COc1ccc(CSc2nc(N3CCOCC3)c3c(c2C#N)CC(C)(C)OC3)cc1 | inconclusive: 20.6 µM [inhibitor, single point] | –
O=C(CN1C(=O)S/C(=C\c2cc(Cl)c(O)c(Cl)c2)C1=O)Nc1ccccc1 | inconclusive: 1.64 µM [inhibitor, partial curve] | –
CC(OC(=O)c1ccc(F)c(S(=O)(=O)N2CCOCC2)c1)C(=O)NC1CCCC1 (configuration not stated) | inactive | –
N#CC(Cc1ccccc1OC(F)F)c1nc2ccccc2[nH]1 (configuration not stated) | inactive | –
COc1ccc(C(CC(=O)O)c2cc(OC)c(OC)c(OC)c2)cc1OC (configuration not stated) | inactive | –
CC(C)c1nn2c(=O)cc(COC(=O)c3ccco3)nc2s1 | inactive | –
Cc1cccc(C)c1NC(=O)N1CCCC1C(=O)Nc1ccc(-n2cnnn2)cc1 (configuration not stated) | inconclusive: 23.1 µM [inhibitor, single point] | –
CCOCCCn1c(=S)[nH]c2cc(C(=O)NCCCN(CC)CC)ccc2c1=O | inactive | –
COCCCNC(=O)C(=O)Nc1cc2c3c(c1)CCC(=O)N3CCC2 | inactive | –
Cc1cccc(N2CC(C(=O)NC3CCCCCC3)CC2=O)c1C (configuration not stated) | inconclusive: 23.1 µM [inhibitor, partial curve] | –

SMILES | Potency | activity change, negative = growth inhibition
O=C(C1CC1)N1CCC(c2nc(-c3ccc(S(=O)(=O)NCC4CCCO4)cc3)no2)CC1 (configuration not stated) | active: 14.1 µM | –
OC(COc1ccc(CNCc2cccnc2)cc1)CN1CCc2ccccc2C1 (configuration not stated) | inconclusive: 25.9 µM [inhibitor, single point] | –
N/C(CCS(=O)(=O)c1ccc(Cl)cc1)=N\OC(=O)c1ccccc1Cl | inconclusive: 13 µM [inhibitor, partial curve] | –
O=C(Nc1cc2c3c(c1)CC(=O)N3CCC2)C1CC1 | inactive | –
O=C(Nc1ccc(F)c(Cl)c1)c1cc(C2CCCCN2C(=O)CCc2ccccc2)on1 (configuration not stated) | inconclusive: 23.1 µM [inhibitor, single point] | –
CCC(C)[C@H](NC(=O)N1CC(=O)Nc2ccccc21)C(=O)Nc1ccccc1C (some centres not stated) | inconclusive: 23.1 µM [inhibitor, single point] | –
Cc1ccc(OCC(=O)N2CCCc3ccccc32)cc1 | inconclusive: 11.6 µM [inhibitor, partial curve] | –
COc1ccc(C(CNC(=O)CN2C(=O)NC3(CCCC3)C2=O)N(C)C)cc1 (configuration not stated) | inactive | –
CCS(=O)(=O)c1nc(S(=O)(=O)c2ccc(C)cc2)c(N2CCC3(CC2)OCCO3)s1 | inconclusive: 29.1 µM [inhibitor, single point] | –
Cc1oc(-c2ccccc2)cc1C(=O)NCc1ccncc1 | inconclusive: 23.1 µM [inhibitor, partial curve, poor fit] | –
CN(Cc1ccc(Cl)cc1Cl)C(=O)CCNC(=O)c1ccco1 | inactive | –
COc1ccc(N2C(=O)CSC23C(=O)N(CC(=O)NCCc2ccccc2)c2ccccc23)cc1 (configuration not stated) | inconclusive: 29.1 µM [inhibitor, single point] | –
COC(=O)c1ccc(C2C(C(C)=O)=C(C)Nc3ncnn32)cc1 (configuration not stated) | inactive | –
O=C(N/N=C/c1ccccc1O)C(=O)Nc1ccccn1 | active: 14.6 µM | –
O=[N+]([O-])c1ccc(N=Nc2c(Cl)cc(O)cc2Cl)cc1 | active: 4.61 µM | –
CCCn1c(N)c(N(CCOC)C(=O)/C=C/c2cccc(Cl)c2)c(=O)[nH]c1=O | inactive | –
COc1cc(SC)ccc1C(=O)NCCc1ccccc1 | inactive | –
CC(C)Oc1cccc(C(=O)C2CCCN(Cc3ccc4nonc4c3)C2)c1 (configuration not stated) | inactive | –
Cc1c(/C=C(\C#N)c2nn(-c3ccccc3)c(N)c2C#N)c2ccccc2n1Cc1ccc(F)cc1 | inconclusive: 29.1 µM [inhibitor, single point] | –
COc1cc2[nH]c(=O)n(CCC(=O)N3CCN(c4cccc(C)c4C)CC3)c(=O)c2cc1OC | inconclusive: 20.6 µM [inhibitor, partial curve, poor fit] | –
O=C(CCc1nc2ccccc2c(=O)[nH]1)NCCN1C(=O)S/C(=C\c2ccc(Cl)cc2Cl)C1=O | active: 4.61 µM | –
Cn1nc(C(C)(C)C)c([N+](=O)[O-])c1C(=O)NCCO | inconclusive: 18.4 µM [inhibitor, single point] | –
Cc1cccc(NC(=O)CSCC(=O)N(C)Cc2c(F)cccc2Cl)c1 | active: 13 µM | –
